Screen size: about 45,000 compounds; about 200 (0.44%) were called active. Roughly 7% stayed inconclusive and do not appear here. Calls follow the shape of the dose curve; as a rule, active = well fitted activation curve with a large enough effect; inconclusive = small, poorly fitted or top-dose-only effect; inactive = no such curve, though single readings can be large or run the other way. The list shows a part of the results.
experiment: qHTS of TDP-43 Inhibitors: NCGC Sytravon Library Screen; conditions: yeast TDP-43 toxicity rescue, BacTiter-Glo growth, 24 h; at 46.1 µM (top of the series); also: 0% is about no effect; nearly all actives have a fitted effect of over 55% in size
Procedure, shortened: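 TDP-43-expressing yeast, pregrown in raffinose, seeded at OD600 0.02 in galactose medium with compound for 24 hr at 30 deg C. Growth read by BacTiter-Glo luminescence, so rescue of toxicity appears as activation.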

SMILES	growth rescue (activation)
O=C1NC(=S)N(c2ccccc2)C(=O)/C1=C/c1ccco1	inactive: -5.89%
CN(C)C(=O)Oc1ccc2c(c1)O/C(=C\c1cccc(Cl)c1)C2=O	inactive: 6.08%
Cc1ccc(C2=NN(CCC(=O)N3CCC4(CC3)OCCO4)C(=O)CC2)cc1	inactive: -18.3%
CN(Cc1c[nH]c2ccccc12)C1CCCCC1	inactive: 15.1%
CC1CC(OP(O)(=S)c2ccc(N(C)C)cc2NC(=O)c2cccs2)CC(C)(C)C1 (stereo unspecified)	inactive: 20.4%
CC(C(N)=O)N1CC(c2ccccc2)CC1=O (stereo unspecified)	inactive: 12.1%
Cc1ccc(N=C(N(C)C)P(=O)(N(C)C)N(C)C)cc1	inactive: -15.2%
CC1(C)C(C(=O)N2CCN(C(=O)c3ccccc3)CC2)C1(C)C	inactive: -0.344%
O=c1c2ccccc2nc(CNCC2CCCO2)n1-c1ccc(F)cc1 (stereo unspecified)	inactive: 4.51%
CC(C(=O)O)N(C(=O)c1ccccc1)c1ccc(F)c(Cl)c1 (stereo unspecified)	inactive: -30.8%
O=c1[nH]c(=O)n(-c2ccc(Br)cc2)c(O)c1C=NC(CO)(CO)CO	inactive: -5.28%
Cc1ccccc1-n1c(O)c(/C=N/Nc2nc3c(c(=O)n(C)c(=O)n3C)n2C)c(=O)[nH]c1=S	inactive: 15.7%
C[C@]12CCC3C(CC[C@H]4C[C@@H](O)CC[C@]34C)[C@H]1C=CC2=O (stereo partly specified)	inactive: 29.6%
COc1ccc(-c2nn(CCC#N)cc2C(=O)Nc2ccccc2Br)cc1[N+](=O)[O-]	inactive: 25%
CCC1(C(=O)c2ccccc2)C2c3ccccc3OC(=O)C21C(C)=O (stereo unspecified)	inactive: 5.68%
Cc1ncc(CN2CCCC(C(=O)c3cccc(Cl)c3)C2)s1 (stereo unspecified)	inactive: 16.5%
CN1CCN(c2ccc(C(N)=O)cc2[N+](=O)[O-])CC1	inactive: -1.72%
CSc1ccc(C(=O)C2CCCN(Cc3cnc(SC)nc3)C2)cc1 (stereo unspecified)	inactive: -23.5%
CC(C)(C)C(=O)O[C@H]1CC[C@@]2(C)C(=CC(=O)C3C2CC[C@]2(C)C(=O)[C@@H](F)CC32)C1 (stereo partly specified)	inactive: 27.7%
C/C(=N\NC(N)=O)c1c(O)n(C)c(=O)n(C)c1=O	inactive: -12.6%
Cc1c(C=C2C(=O)N(C)C(=O)N(C)C2=O)c(=O)n(-c2ccccc2)n1C	inactive: 6.23%
O=C1NC(=O)N(c2ccccc2)C(=O)/C1=C/c1ccoc1	inactive: 14.5%
CC(=O)Nc1nnc(CCN(CCc2nnc(NC(C)=O)s2)[N+](=O)[O-])s1	inactive: -2.68%

SMILES	growth rescue (activation)
C[C@]12CCC3C(CC[C@H]4C[C@H](O)CC[C@]34C)C1C[C@@H](O)[C@H]2O (stereo partly specified)	inactive: 5.53%
O=C(CN1CC=C(c2ccccc2)CC1)NC(=O)NC1CCCCC1	inactive: 3.91%
Cc1ccc(-n2c(O)c(C=NCC3CCCO3)c(=O)[nH]c2=O)c(C)c1 (stereo unspecified)	inactive: -10.7%
C[C@]12CCC3C(CC[C@H]4C[C@@H](O)CC[C@]34C)C1C[C@@H](O)[C@]2(C)O (stereo partly specified)	inactive: 17.1%
N#Cc1c(/N=C/C2C(=O)NC(=S)NC2=O)sc2c1CCCC2	inactive: 13.5%
O=C1NC(=O)N(c2ccc3c(c2)OCO3)C(=O)/C1=C/c1cccs1	inactive: -5.14%
O=c1[nH]c(=S)n(Cc2ccc(F)cc2)c(O)c1C=NCc1ccc2c(c1)OCO2	inactive: 5.63%
C[C@]12CCC3C(CC[C@H]4C[C@@H](O)CC[C@]34C)C1C/C(=N/O)[C@@H]2O (stereo partly specified)	inactive: -3.66%
Cc1cc(C(=O)N=Nc2c(O)n(C)c3ccccc23)c(C)o1	inactive: 15.4%
CCN(CC)c1ccc(N=Cc2c(O)n(-c3cc(OC)ccc3OC)c(=O)[nH]c2=O)cc1	inactive: -3%
O=C(O)C1Cc2ccccc2N2CCCC12 (stereo unspecified)	inactive: 0.546%
COc1ccc(-n2c(/C=C/c3ccc4c(c3)OCO4)nc3ccccc3c2=O)cc1	inactive: 6.53%
Cc1cc([N+](=O)[O-])c(Cl)cc1NC(=O)C(C)C	inactive: 13%
Cc1ccccc1N1C(=O)NC(=O)/C(=C\c2cc(C)n(C)c2C)C1=O	inactive: -2.46%
O=C(CCN1CCCCC1)Nc1ccc(Br)cc1C(=O)c1ccccc1	inactive: 0.977%
CC(=O)N(C1=NCCCS1)c1ccc(Cl)cc1	inactive: -20.5%
Clc1ccc(-c2nc3ccc(Cl)cn3c2CN2CCOCC2)cc1	inactive: 2.23%
Cc1cc(NC(=O)COC(=O)c2c(C)nn(Cc3ccccc3)c2C)no1	inactive: 22.1%
Cn1c(O)c(/C=C2\N=c3ccccc3=C2CCNC(=S)NC2CC2)c(=O)n(C)c1=O	inactive: -9.76%
O=C(Cc1ccccc1)N1CCN(Cc2ccccn2)CC1	inactive: 27.4%
CCN(CC)C(=O)c1ccc(NC(=O)COc2ccc([N+](=O)[O-])cc2Cl)cc1	inactive: 2.08%
COc1ccccc1-n1c(O)c(C=NCCCn2ccnc2)c(=O)[nH]c1=O	inactive: -3.33%
CN(C)c1ccc(/C=C2/C(=O)NC(=O)N(Cc3ccco3)C2=O)cc1	inactive: 13.8%

SMILES	growth rescue (activation)
Cc1cccc(N2C(=O)NC(=O)/C(=C\c3cnc(-c4ccccc4)nc3)C2=O)c1	inactive: 27.3%
Cc1ccc2c(c1)N(C(C)C(=O)N1CCC3(CC1)OCCO3)C(=O)CO2 (stereo unspecified)	inactive: 5.95%
O=C1/C(=C\c2cc3c(cc2Br)OCO3)N2CCC1CC2	inactive: 12.6%
CCCN1CCC2(CC1)NC(CO)(CO)CO2	inactive: 3.67%
Cc1ccc(C2N3CCCN23)cc1 (stereo unspecified)	inactive: 4.5%
CNS(=O)(=O)c1ccc(N=Cc2c(O)n(-c3ccc(C)cc3)c(=O)[nH]c2=O)cc1	inactive: -16.8%
COP(=O)(NS(=O)(=O)c1ccccc1)OC	inactive: -0.45%
COc1ccc(-n2c(O)c(/C=C3\C=Nc4ccc(Br)cc43)c(=O)[nH]c2=O)c(OC)c1	inactive: 16.7%
Cn1c(O)c(C=NCCN2CCOCC2)c(=O)[nH]c1=S	inactive: 5.4%
C/C(=N\N1CCN(C)CC1)c1c(O)n(Cc2ccccc2)c(=O)[nH]c1=O	inactive: -5.36%
O=C(O)C(Cc1cnc[nH]1)NS(=O)(=O)c1ccc(Cl)cc1 (stereo unspecified)	inactive: 5.09%
Cc1ccc(NC(=O)Cn2cc(C(=O)c3ccccc3)c3ccccc32)c(C)c1	inactive: 5.44%
FC(F)(F)c1ccccc1NC1=NCCCS1	inactive: 8.12%
Cc1cc(=O)[nH]c(CCl)n1	inactive: -6.53%
CN(C)C1(c2nnnn2CCOC(=O)Nc2ccc(Cl)cc2)CCCCC1	inactive: 9.2%
CCC(=O)c1ccc(OCC(=O)N2CCN(CC(=O)Nc3ccccc3C(F)(F)F)CC2)cc1	inactive: 3.13%
CC1(C)OC(c2ccccc2)=C/C(=C/C=C2C(=O)NC(=S)NC2=O)O1	inactive: -16.5%
CC(=O)C1C2c3ccccc3OC1(C)N=c1s/c(=C/c3cn(C)nc3C)c(=O)n12 (stereo unspecified)	inactive: 20.4%
Cc1cc(C)nc(NS(=O)(=O)c2ccc(N=Cc3c(O)n(C)c(=O)n(C)c3=O)cc2)n1	inactive: -7.57%
C[C@]12CCC3C(CC[C@H]4C[C@@H](O)CC[C@]34C)C1CC[C@@H]2N (stereo partly specified)	inactive: -25.6%
CC(OC(=O)c1cn(C)c2ccccc12)C(=O)N(C)c1ccccc1 (stereo unspecified)	inactive: 29.8%
COc1ccccc1CN1CCN(Cc2ccc(Cl)cc2)CC1	inactive: -7.92%
C=CCn1c(O)c(/C(C)=N/NC(=S)Nc2ccccc2)c(=O)[nH]c1=O	inactive: 4.47%

SMILES	growth rescue (activation)
CCn1c(O)c(/C=N/NC(=O)c2ccccc2)c(=O)n(CC)c1=S	inactive: -10.4%
N#CCCn1cc(C(=O)Nc2ccc(F)cc2)c(-c2ccc([N+](=O)[O-])cc2)n1	inactive: 0.0769%
Clc1ccccc1NC1=NCCCS1	inactive: 2.04%
COc1ccc(N=Cc2c(O)n(-c3ccc(C)cc3)c(=O)[nH]c2=O)cc1	inactive: -4.59%
O=c1c2ccccc2nc(/C=C/c2ccccc2F)n1-c1cccc(O)c1	inactive: 2.96%
COc1ccc(-n2c(-c3ccccc3[N+](=O)[O-])nc3ccccc3c2=O)cc1	inactive: -2.84%
C[C@]12CC[C@@H](O)CC1=CCC1C2CC[C@]2(C)C(=O)[C@H](F)CC12 (stereo partly specified)	inactive: -12.2%
C/C(=N\N(C)c1ccccc1)c1c(O)[nH]c(=O)[nH]c1=O	inactive: -3.66%
C[n+]1c2ccccc2nc2ccc(NCCO)cc21	inactive: -32.8%
Cc1cccc(OP(=O)(Oc2cccc(C)c2)OC(c2ccccc2)C(F)(F)F)c1 (stereo unspecified)	inactive: -6.78%
C=CCn1c(O)c(/C=N/N2CCCCC2)c(=O)[nH]c1=O	inactive: 1.11%
CC1CN(c2ccc([N+](=O)[O-])c(N3CCCCC3)c2)CCN1 (stereo unspecified)	inactive: 11.1%
Cc1cc(/C=C2\C(=O)NC(=O)N(Cc3ccco3)C2=O)c(C)n1-c1ccc(O)cc1	inactive: 3.28%
CCOCCc1c(O)[nH]c(=S)[nH]c1=O	inactive: 3.18%
Clc1ccc(OCC#CCN2CCCC2)cc1	inactive: 2%
O=[N+]([O-])c1ccc2c(c1)C(c1ccccc1)=NCCN2	inactive: 10.6%
CCc1ccc(N2C(=O)NC(=O)/C(=C/c3cccn3CCOc3ccc(C)cc3)C2=O)cc1	inactive: 9.66%
CN(C)c1ccc(/C=C2\C(=O)NC(=O)N(Cc3ccc(F)cc3)C2=O)cc1	inactive: 2.38%
CCOc1ccc(Cl)cc1CNCCc1ccc(F)cc1	inactive: 5.24%
CCN1CCN(c2nc([N+](=O)[O-])nn2C)CC1	inactive: -4.58%
Cc1ccc(-n2c(-c3ccc([N+](=O)[O-])cc3)nc3ccccc3c2=O)cc1	inactive: 28.7%
O=C(c1ccc(Cl)cc1)C1CCCN(Cc2cccc3cccnc23)C1 (stereo unspecified)	inactive: 9.23%
